According to the supplement of paper PMC4967469:
A lower IC50 marks a more sensitive line; fits outside the tested doses are given as limits. AUC, from the same fit, is the share of area under the viability curve across the 256-fold dose range; the more sensitive the line, the further below 1. For some assays here: Where the top dose is marked as inferred, it is not printed in the source and was worked back from the curve model. For some assays here: Drugs with an entry number were screened twice under separate entries, and the two screens often disagree.

Key:
Experiment in all cases: Viability of human cancer cell lines after 72 h of drug (GDSC screen)
Docetaxel = compound: CC(=O)O[C@@]12CO[C@@H]1C[C@H](O)[C@@]1(C)C(=O)[C@H](O)C3=C(C)[C@@H](OC(=O)[C@H](O)[C@@H](NC(=O)OC(C)(C)C)c4ccccc4)C[C@@](O)([C@@H](OC(=O)c4ccccc4)[C@H]21)C3(C)C [Docetaxel]; conditions: top dose 0.0125 µM
Experimental: (§1)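 Human cancer cell lines in 384-well plates, medium with 10% serum, drug for 72 h over a 256-fold dose range (nine 2-fold or five 4-fold steps up to the top dose). Adherent lines were fixed and stained with the nucleic acid dye Syto60, suspension lines read with resazurin; signal relative to control wells, capped at 0 and 100%. One two-parameter sigmoid per drug and line, fitted in a mixed model over all curves with the slope shared within a line.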

Belinostat = compound: O=C(/C=C/c1cccc(S(=O)(=O)Nc2ccccc2)c1)NO [Belinostat]; conditions: top dose 20 µM; top dose inferred
Experimental: as §1

OSI-906 = compound: C[C@]1(O)C[C@@H](c2nc(-c3ccc4ccc(-c5ccccc5)nc4c3)c3c(N)nccn32)C1 [OSI-906]; conditions: top dose 2.56 µM; top dose inferred
Experimental: as §1

SB-715992 = compound: Cc1ccc(C(=O)N(CCCN)[C@@H](c2nc3cc(Cl)ccc3c(=O)n2Cc2ccccc2)C(C)C)cc1 [SB-715992]; conditions: top dose 0.128 µM; top dose inferred
Experimental: as §1

FTI-277 = compound: COC(=O)[C@H](CCSC)NC(=O)c1ccc(NC[C@@H](N)CS)cc1-c1ccccc1 [FTI-277]; conditions: top dose 1.024 µM; top dose inferred
Experimental: as §1

JQ1 = compound: Cc1sc2c(c1C)C(c1ccc(Cl)cc1)=N[C@@H](CC(=O)OC(C)(C)C)c1nnc(C)n1-2 [JQ1]
Experimental: as §1

NSC-207895 = compound: CN1CCN(c2ccc([N+](=O)[O-])c3no[n+]([O-])c23)CC1 [NSC-207895]; conditions: top dose 20 µM; top dose inferred
Experimental: as §1

JNJ-26854165 = compound: c1ccc2c(CCNc3ccc(Nc4ccncc4)cc3)c[nH]c2c1 [JNJ-26854165]; conditions: top dose 10 µM
Experimental: as §1

YM155 = compound: COCC[n+]1c2c(n(Cc3cnccn3)c1C)C(=O)c1ccccc1C2=O [YM155]; conditions: top dose 5.12 µM
Experimental: as §1

[1] = top dose 1 µM, screen: GDSC drug entry 1218, top dose inferred
[2] = top dose 2.56 µM, screen: GDSC drug entry 163

Row | Cell Line | AUC (Docetaxel) | IC50 (Docetaxel) [nM] | AUC (Belinostat) | IC50 (Belinostat) [nM] | AUC (OSI-906) | IC50 (OSI-906) [nM] | AUC (SB-715992) | IC50 (SB-715992) [nM] | AUC (FTI-277) | IC50 (FTI-277) [nM] | AUC (JQ1; [1]) | IC50 (JQ1; [1]) [nM] | AUC (JQ1; [2]) | IC50 (JQ1; [2]) [nM] | AUC (NSC-207895) | IC50 (NSC-207895) [nM] | AUC (JNJ-26854165) | IC50 (JNJ-26854165) [nM] | AUC (YM155) | IC50 (YM155) [nM]
1 | SK-MEL-24 (melanoma, adherent) | 0.85 | > 12.5 | 0.471 | 1030 | 0.925 | > 2560 | 0.944 | > 128 | 0.978 | > 1020 | 0.981 | > 1000 | 0.521 | 185 | 0.964 | > 20000 | 0.842 | 9320 | – | –
2 | SW1990 (pancreas, adherent) | 0.842 | 11.2 | 0.984 | > 20000 | 0.966 | > 2560 | 0.978 | > 128 | 0.976 | > 1020 | 0.912 | > 1000 | 0.808 | 1610 | 0.981 | > 20000 | 0.914 | > 10000 | 0.847 | 4790
3 | U-2-OS (osteosarcoma, adherent) | 0.658 | 2.24 | 0.245 | 213 | 0.956 | > 2560 | 0.984 | > 128 | 0.979 | > 1020 | – | – | – | – | 0.983 | > 20000 | 0.745 | 3390 | – | –
4 | UM-UC-3 (bladder, adherent) | 0.806 | 5.88 | 0.449 | 917 | 0.983 | > 2560 | 0.7 | 28 | 0.987 | > 1020 | 0.985 | > 1000 | 0.944 | > 2560 | 0.871 | 16800 | 0.848 | 6720 | 0.034 | < 20
5 | UMC-11 (lung carcinoid, adherent) | 0.887 | 11.4 | 0.223 | 218 | 0.99 | > 2560 | 0.834 | 71.4 | 0.991 | > 1020 | 0.988 | > 1000 | 0.578 | 255 | 0.964 | > 20000 | 0.892 | 9560 | 0.093 | < 20
6 | VMRC-MELG (melanoma, adherent) | 0.907 | > 12.5 | 0.238 | 209 | 0.9 | > 2560 | 0.987 | > 128 | 0.978 | > 1020 | 0.988 | > 1000 | 0.791 | 1210 | 0.974 | > 20000 | 0.953 | > 10000 | 0.28 | 73.4
7 | VMRC-RCW (kidney, adherent) | 0.965 | > 12.5 | 0.611 | 2460 | 0.947 | > 2560 | 0.917 | > 128 | 0.968 | > 1020 | – | – | 0.66 | 428 | 0.979 | > 20000 | – | – | 0.545 | 421
